Experimental data reported in paper PMC6919601, “Identification of Plasmodium dipeptidyl aminopeptidase allosteric inhibitors by high throughput screening” (PLoS ONE, 2019).
About 230 (0.21%) of roughly 110,000 compounds showed an effect of 50% or more. The list shows a part of the results.

Molecular target: DPAP1 (Plasmodium falciparum, UniProt Q8IIJ9)
Assay: primary screen, percent inhibition; read by cleavage of a fluorogenic dipeptide substrate; higher = more effect of the substance
Set-up: species or system P. falciparum D10 trophozoite lysates; single well
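Further: 30 min substrate incubation versus DMSO and 10 µM JCP410 controls.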

Chain of DPAP1 (Q8IIJ9 whole entry, looked up): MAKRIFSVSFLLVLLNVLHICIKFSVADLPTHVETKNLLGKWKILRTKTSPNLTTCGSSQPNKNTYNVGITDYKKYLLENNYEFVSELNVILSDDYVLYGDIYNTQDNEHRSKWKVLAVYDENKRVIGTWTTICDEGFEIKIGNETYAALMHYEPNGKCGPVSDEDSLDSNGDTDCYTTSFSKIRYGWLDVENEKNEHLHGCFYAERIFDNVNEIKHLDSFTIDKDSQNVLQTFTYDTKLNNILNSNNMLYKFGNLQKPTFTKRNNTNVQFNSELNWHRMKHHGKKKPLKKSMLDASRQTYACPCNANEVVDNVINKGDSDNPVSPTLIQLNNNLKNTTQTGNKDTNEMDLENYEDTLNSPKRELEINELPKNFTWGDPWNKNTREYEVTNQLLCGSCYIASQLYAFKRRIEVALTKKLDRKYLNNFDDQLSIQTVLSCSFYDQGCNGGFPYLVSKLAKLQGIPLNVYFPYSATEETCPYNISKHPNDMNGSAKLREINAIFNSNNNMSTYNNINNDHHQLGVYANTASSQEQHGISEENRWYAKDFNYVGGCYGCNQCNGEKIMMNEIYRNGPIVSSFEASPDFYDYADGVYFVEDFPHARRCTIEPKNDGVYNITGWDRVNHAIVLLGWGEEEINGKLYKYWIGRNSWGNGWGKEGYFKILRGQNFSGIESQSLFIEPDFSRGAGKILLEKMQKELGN

Row | Structure (SMILES) | % Inhibition @ 10 uM [%]
1 | O=C(NCCCO)/C(=C/c1ccccc1)NC(=O)c1ccc(Br)o1 | 5.67
2 | COc1cc(CN2CCN(Cc3ccc(SC)cc3)CC2)cc(OC)c1OC | 3.05
3 | Cc1c(C)n(CC(O)CNc2ccccc2)c2ccccc12 (stereo not shown) | 3.53
4 | Cc1ccc(C)c(OCC(=O)O/N=C(\N)c2ccccn2)c1 | 0.487
5 | CC(C)(Cl)C1Cc2cc3ccc(=O)oc3cc2O1 (stereo not shown) | -2.78
6 | COC(=O)c1sccc1NC(=O)c1cc(C)nc2c1c(C)nn2-c1cccc(Cl)c1C | 1.15
7 | COc1ccccc1CNC(=O)CN(C)S(=O)(=O)c1cccc2cccnc12 | 0.981
8 | Cc1sc2nc(SCC(N)=O)n(-c3cccc(Cl)c3)c(=O)c2c1C | -2.64
9 | Cc1nc(NC(=O)COc2ccc(C(C)(C)C)cc2)ccc1Br | -7.81
10 | Cc1ccc(S(=O)(=O)Nc2ccc(OC(C)C)cc2)cc1 | -2.08
11 | CN(C)CCC(c1ccc(Cl)cc1)c1ccccn1 (stereo not shown) | -8.57
12 | COc1ccc(/C=C2\N=C(c3ccc(Br)cc3)OC2=O)cc1OC | -1.15
13 | O=C(NCc1ccco1)c1ccc2c(c1)C(=O)N(CC1CCCO1)C2=O (stereo not shown) | 1.19
14 | COC(=O)C1=CN(C)C=C(C(=O)OC)C1c1ccc(OC)c(OC)c1OC | 3.47
15 | Cc1ccc2c(CNCCc3ccco3)c(C(=O)O)n(C)c2c1 | -10.5
16 | N#CCNC(=O)[C@@H](Cc1ccccc1Cl)NC(=O)OCc1ccccc1 | 1.61
17 | Cc1ccc(N2CC(C(=O)NC3CC3)CC2=O)cc1Cl (stereo not shown) | -2.32
18 | CCc1ccccc1NC(=O)COc1ccc2c(C)cc(=O)oc2c1 | 8.82
19 | COC(=O)CCS(=O)(=O)c1ccc2ccccc2c1 | 0.937
20 | Cc1ccc(NC(=O)CCc2ccc(S(=O)(=O)NC3CCCCC3)cc2)cc1 | -1.61
21 | CS(=O)(=O)N(CC(=O)N1CCC(Cc2ccccc2)CC1)c1cc(Cl)cc(Cl)c1 | -2.94
22 | Cc1ccnc(NC(=O)c2noc3c2CCCC3)c1 | -4.97
23 | CCN(CC)CCNC(=O)C12CC3CC(CC(C3)C1)C2 | 0.815
24 | COc1cccc(COC(=O)N[C@@H](CC(C)C)C(=O)NCC#N)c1OC | -4.72
25 | O=C(Cn1c(=O)c2cccn2c2cccnc21)NCCc1c[nH]c2ccccc12 | -0.118
26 | CC(C)=CCC[C@H](C)CCN1CCN(c2ccccc2F)CC1 | -3.57
27 | Fc1cccc(F)c1CN1CCN(C/C=C/c2ccccc2)CC1 | 1.08
28 | COc1ccc(CNC(=O)C2=Cc3sc4c(c3CS2)CCC(C)C4)cc1 (stereo not shown) | 4.48
